Measurements: the supplement of paper PMC12217912
This is one part of the list. The full chains were built here from the parent and the listed change. Inactive controls read about 0.05.

B1: TEV protease; numbered along this chain (parent)
chain: MGESLFKGPRDYNPISSSICHLTNESDGHTTSLYGIGFGPFIITNKHLFRRNNGTLVVQSLHGVFKVKDTTTLQQHLVDGRDMIIIRMPKDFPPFPQKLKFREPQREERICLVTTNFQTKSMSSMVSDTSCTFPSGDGIFWKHWIQTKDGQCGSPLVSTRDGFIVGIHSASNFTNTNNYFTSVPKNFMELLTNQEAQQWVSGWRLNADSVLWGGHKVFMVKPEEPFQPVKEATQL

Variants of: B1
Experiment: raw area under fraction-flipped curve 0-4 h after induction (AUC4h, not background-subtracted), DNA-recorder readout of cleavage of the substrate (dimensionless); higher = more cleavage of the substrate by the protease variant
Details: temperature: 34 °C; time window: 0-4 h after rhamnose induction
Description: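 In vivo DNA recorder in E. coli TOP10(DE3) ΔrhaA at 34 °C. Each TEVp single-site mutant (parent TEVp 0) is paired with a single-site variant of the 7-mer TEVs (canonical ENLYFQ|S). The substrate sits between flexible linkers in a Bxb1-sfGFP-TEVs-SsrA fusion, so cleavage stabilises Bxb1 and speeds flipping of a recombination array, read by NGS. The value is the raw area under the fraction-flipped curve over 0-4 h after rhamnose induction (AUC4h), with ≥20 reads per time point. It is not background-subtracted; inactive controls average about 0.047.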
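Further: Bxb1 expression induced with 0.2% (w/v) L-rhamnose at OD600 near 0.5, cultures sampled hourly, flipped fraction per protease–substrate barcode pair counted by paired-end Illumina sequencing.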

Variant	area with substrate ENLYFAS	area with substrate ENLYFCS	area with substrate ENLYFDS	area with substrate ENLYFFS	area with substrate ENLYFGS	area with substrate ENLYFHS	area with substrate ENLYFIS	area with substrate ENLYFMS	area with substrate ENLYFNS	area with substrate ENLYFPS	area with substrate ENLYFRS	area with substrate ENLYFTS	area with substrate ENLYFWS	area with substrate ENLYFYS	area with substrate ENLYFLS	area with substrate ENLYFSS	area with substrate ENLYFES	area with substrate ENLYFKS	area with substrate ENLYFVS
D91W	0.0679	0.0682	0.0553	0.0743	0.0571	0.0432	0.0611	0.0564	0.0644	0.0553	0.0621	0.0724	0.051	0.0683	–	–	–	–	–
F92E	0.0685	0.0498	0.0183	–	–	0.0559	0.0535	0.0531	0.0595	0.0589	–	0.0496	0.062	0.0487	0.0584	0.0517	–	–	–
F92Y	0.0654	0.056	–	0.0571	–	0.0428	0.0481	0.0616	0.0665	0.0596	0.0636	0.0651	–	–	0.054	0.0325	0.0667	0.0612	0.0508
P93A	0.0516	–	–	0.061	–	0.0679	0.0606	0.0715	0.063	0.0522	–	0.0388	0.0398	0.0555	0.0578	–	0.102	0.0637	0.0568
K98G	0.0689	0.0633	0.0585	0.0782	–	0.0498	0.0598	0.0645	0.0556	0.0667	–	0.056	0.0536	0.0569	–	0.0557	0.0595	0.0426	0.0744
K98T	0.0891	0.0604	0.056	0.0389	–	0.0682	0.0581	0.0602	–	0.0552	0.0658	0.0827	0.0499	0.0742	–	0.0646	0.0711	0.0678	–
K100F	0.0682	0.0498	–	0.0775	0.0582	0.0523	0.06	–	–	0.0597	0.0602	0.0541	0.0571	–	–	0.0409	0.0782	0.0829	–
K100I	0.0673	–	–	0.0652	–	0.059	0.0542	–	0.0499	0.0702	–	0.0578	0.0595	–	–	0.0615	–	0.0692	–
E103H	0.0427	0.0873	0.0594	0.0448	0.0616	–	0.0659	–	–	0.0558	–	0.054	0.0525	0.0477	0.0619	0.0595	0.0643	–	–
E103V	0.0471	0.0591	–	0.0635	0.0548	0.0583	0.0617	0.0652	0.0725	0.0677	0.0646	0.0678	0.0651	–	–	–	–	–	0.0573
Q105E	0.0495	0.0578	0.0391	0.078	0.0503	–	0.0597	0.0613	–	0.0551	–	0.0682	0.0766	0.0593	–	0.0518	0.0645	–	–
R106T	0.0672	–	–	–	0.0838	–	0.0601	0.068	0.0827	0.0618	–	0.0737	0.0468	0.0712	0.056	0.0696	0.0677	0.0672	0.0591
E107G	0.0535	–	0.0749	–	0.0501	–	0.0505	0.0564	0.0674	–	–	–	0.0506	–	–	0.0503	0.0563	0.064	0.0429
